# Measured values reported in publication PMC12820563.
# The other results are listed elsewhere or left out. The list includes weakly bound sequences.
# Target: T1, MBP-FoxP3dN (UniProt Q99JB6)
# T1 sequence: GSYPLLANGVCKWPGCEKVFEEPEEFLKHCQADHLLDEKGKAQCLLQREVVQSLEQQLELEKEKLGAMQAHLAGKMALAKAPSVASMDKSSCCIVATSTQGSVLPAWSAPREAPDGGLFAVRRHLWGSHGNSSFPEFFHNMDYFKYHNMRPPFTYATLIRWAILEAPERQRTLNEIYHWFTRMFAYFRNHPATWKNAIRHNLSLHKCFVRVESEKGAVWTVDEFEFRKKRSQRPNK
# Assay: PD-seq (MBP pull-down with sequencing)
# Conditions: 20 mM Tris-HCl pH 7.5, 100 mM NaCl, 1.5 mM MgCl2, 0.4 uM protein, 0.1 uM dsDNA library, 30 min, room temperature, amylose pull-down; high values mean tight binding; double strand, one strand shown
row,Sequence,binding signal (RPM ratio (pull-down/input))
1,GATGATTGTTCTCCCAGCTGATGAATTAATACAGTCGAGTAAACAAATTTTCCTAATCTTTCTGTTCAAGCGCCATCTAC,0.513
2,GATGATTGTTCTCCCAGCTGATGAATTTACAGATTCGAGTAAACAAATTTTCCTAATCTTTCTGTTCAAGCGCCATCTAC,0.415
3,GATGATTGTTCTCCCAGCTGATGAATTAGCTGATTCGAGTAAACAAATTTTCCTAATCTTTCTGTTCAAGCGCCATCTAC,1.17
4,GATGATTGTTCTCCCAGCTGATGAATTGTAGGGCTCGAGTAAACAAATTTTCCTAATCTTTCTGTTCAAGCGCCATCTAC,0.494
5,GATGATTGTTCTCCCAGCTGATGAATTGACCGTATCGAGTAAACAAATTTTCCTAATCTTTCTGTTCAAGCGCCATCTAC,0.445
6,GATGATTGTTCTCCCAGCTGATGAATTCGGATCGTCGAGTAAACAAATTTTCCTAATCTTTCTGTTCAAGCGCCATCTAC,0.329
7,GATGATTGTTCTCCCAGCTGATGAATTGGCTGAATCGAGTAAACAAATTTTCCTAATCTTTCTGTTCAAGCGCCATCTAC,0.239
8,GATGATTGTTCTCCCAGCTGATGAATTACCCCCCTCGAGTAAACAAATTTTCCTAATCTTTCTGTTCAAGCGCCATCTAC,0.297
9,GATGATTGTTCTCCCAGCTGATGAATTCACGTTATCGAGTAAACAAATTTTCCTAATCTTTCTGTTCAAGCGCCATCTAC,0.742
10,GATGATTGTTCTCCCAGCTGATGAATTTAAATCCTCGAGTAAACAAATTTTCCTAATCTTTCTGTTCAAGCGCCATCTAC,0.377
11,GATGATTGTTCTCCCAGCTGATGAATTAGTTAGATCGAGTAAACAAATTTTCCTAATCTTTCTGTTCAAGCGCCATCTAC,0.461
12,GATGATTGTTCTCCCAGCTGATGAATTTGTGAGATCGAGTAAACAAATTTTCCTAATCTTTCTGTTCAAGCGCCATCTAC,0.579
13,GATGATTGTTCTCCCAGCTGATGAATTAAACAGGTCGAGTAAACAAATTTTCCTAATCTTTCTGTTCAAGCGCCATCTAC,0.425
14,GATGATTGTTCTCCCAGCTGATGAATTAGTTTGCTCGAGTAAACAAATTTTCCTAATCTTTCTGTTCAAGCGCCATCTAC,5.59
15,GATGATTGTTCTCCCAGCTGATGAATTGGTTCTGTCGAGTAAACAAATTTTCCTAATCTTTCTGTTCAAGCGCCATCTAC,0.3
16,GATGATTGTTCTCCCAGCTGATGAATTGTTCCAGTCGAGTAAACAAATTTTCCTAATCTTTCTGTTCAAGCGCCATCTAC,0.319

row,Sequence,binding signal (RPM ratio (pull-down/input))
1,GATGATTGTTCTCCCAGCTGATGAATTAACTATTTCGAGTAAACAAATTTTCCTAATCTTTCTGTTCAAGCGCCATCTAC,0.405
2,GATGATTGTTCTCCCAGCTGATGAATTCAGCCTCTCGAGTAAACAAATTTTCCTAATCTTTCTGTTCAAGCGCCATCTAC,5.28
3,GATGATTGTTCTCCCAGCTGATGAATTGGGAATATCGAGTAAACAAATTTTCCTAATCTTTCTGTTCAAGCGCCATCTAC,0.512
4,GATGATTGTTCTCCCAGCTGATGAATTGCTAATGTCGAGTAAACAAATTTTCCTAATCTTTCTGTTCAAGCGCCATCTAC,0.726
5,GATGATTGTTCTCCCAGCTGATGAATTAGCTAAATCGAGTAAACAAATTTTCCTAATCTTTCTGTTCAAGCGCCATCTAC,0.225
6,GATGATTGTTCTCCCAGCTGATGAATTGCGACCCTCGAGTAAACAAATTTTCCTAATCTTTCTGTTCAAGCGCCATCTAC,1.01
7,GATGATTGTTCTCCCAGCTGATGAATTCCTCAAGTCGAGTAAACAAATTTTCCTAATCTTTCTGTTCAAGCGCCATCTAC,0.199
8,GATGATTGTTCTCCCAGCTGATGAATTGCCGCCTTCGAGTAAACAAATTTTCCTAATCTTTCTGTTCAAGCGCCATCTAC,3.89
9,GATGATTGTTCTCCCAGCTGATGAATTCTATATTTCGAGTAAACAAATTTTCCTAATCTTTCTGTTCAAGCGCCATCTAC,0.729
10,GATGATTGTTCTCCCAGCTGATGAATTTCAAATCTCGAGTAAACAAATTTTCCTAATCTTTCTGTTCAAGCGCCATCTAC,0.221
11,GATGATTGTTCTCCCAGCTGATGAATTTCTCCCGTCGAGTAAACAAATTTTCCTAATCTTTCTGTTCAAGCGCCATCTAC,0.222
12,GATGATTGTTCTCCCAGCTGATGAATTCAAAGTTTCGAGTAAACAAATTTTCCTAATCTTTCTGTTCAAGCGCCATCTAC,0.273
13,GATGATTGTTCTCCCAGCTGATGAATTCTAGTGGTCGAGTAAACAAATTTTCCTAATCTTTCTGTTCAAGCGCCATCTAC,0.391
14,GATGATTGTTCTCCCAGCTGATGAATTAAGTTTGTCGAGTAAACAAATTTTCCTAATCTTTCTGTTCAAGCGCCATCTAC,4.83
15,GATGATTGTTCTCCCAGCTGATGAATTACGCGATTCGAGTAAACAAATTTTCCTAATCTTTCTGTTCAAGCGCCATCTAC,1.18
